Source: the supplement of paper PMC12423691
The list shows a part of the results. Binding of human transcription factors and regulators to the viral nucleoprotein by AlphaScreen, crude cell-free proteins, amounts not normalised, one pass. Fold of the Venus control; higher = more signal. No active / inactive call. Single-pass screen; sequences are the whole Swiss-Prot entries looked up by name.

B1: NR0B1, P51843 (protein)
chain: MAGENHQWQGSILYNMLMSAKQTRAAPEAPETRLVDQCWGCSCGDEPGVGREGLLGGRNVALLYRCCFCGKDHPRQGSILYSMLTSAKQTYAAPKAPEATLGPCWGCSCGSDPGVGRAGLPGGRPVALLYRCCFCGEDHPRQGSILYSLLTSSKQTHVAPAAPEARPGGAWWDRSYFAQRPGGKEALPGGRATALLYRCCFCGEDHPQQGSTLYCVPTSTNQAQAAPEERPRAPWWDTSSGALRPVALKSPQVVCEAASAGLLKTLRFVKYLPCFQVLPLDQQLVLVRNCWASLLMLELAQDRLQFETVEVSEPSMLQKILTTRRRETGGNEPLPVPTLQHHLAPPAEARKVPSASQVQAIKCFLSKCWSLNISTKEYAYLKGTVLFNPDVPGLQCVKYIQGLQWGTQQILSEHTRMTHQGPHDRFIELNSTLFLLRFINANVIAELFFRPIIGTVSMDDMMLEMLCTKI
B2: CAMTA1, Q9Y6Y1 (protein)
chain: MWRAEGKWLPKTSRKSVSQSVFCGTSTYCVLNTVPPIEDDHGNSNSSHVKIFLPKKLLECLPKCSSLPKERHRWNTNEEIAAYLITFEKHEEWLTTSPKTRPQNGSMILYNRKKVKYRKDGYCWKKRKDGKTTREDHMKLKVQGVECLYGCYVHSSIIPTFHRRCYWLLQNPDIVLVHYLNVPAIEDCGKPCGPILCSINTDKKEWAKWTKEELIGQLKPMFHGIKWTCSNGNSSSGFSVEQLVQQILDSHQTKPQPRTHNCLCTGSLGAGGSVHHKCNSAKHRIISPKVEPRTGGYGSHSEVQHNDVSEGKHEHSHSKGSSREKRNGKVAKPVLLHQSSTEVSSTNQVEVPDTTQSSPVSISSGLNSDPDMVDSPVVTGVSGMAVASVMGSLSQSATVFMSEVTNEAVYTMSPTAGPNHHLLSPDASQGLVLAVSSDGHKFAFPTTGSSESLSMLPTNVSEELVLSTTLDGGRKIPETTMNFDPDCFLNNPKQGQTYGGGGLKAEMVSSNIRHSPPGERSFSFTTVLTKEIKTEDTSFEQQMAKEAYSSSAAAVAASSLTLTAGSSLLPSGGGLSPSTTLEQMDFSAIDSNKDYTSSFSQTGHSPHIHQTPSPSFFLQDASKPLPVEQNTHSSLSDSGGTFVMPTVKTEASSQTSSCSGHVETRIESTSSLHLMQFQANFQAMTAEGEVTMETSQAAEGSEVLLKSGELQACSSEHYLQPETNGVIRSAGGVPILPGNVVQGLYPVAQPSLGNASNMELSLDHFDISFSNQFSDLINDFISVEGGSSTIYGHQLVSGDSTALSQSEDGARAPFTQAEMCLPCCSPQQGSLQLSSSEGGASTMAYMHVAEVVSAASAQGTLGMLQQSGRVFMVTDYSPEWSYPEGGVKVLITGPWQEASNNYSCLFDQISVPASLIQPGVLRCYCPAHDTGLVTLQVAFNNQIISNSVVFEYKARALPTLPSSQHDWLSLDDNQFRMSILERLEQMERRMAEMTGSQQHKQASGGGSSGGGSGSGNGGSQAQCASGTGALGSCFESRVVVVCEKMMSRACWAKSKHLIHSKTFRGMTLLHLAAAQGYATLIQTLIKWRTKHADSIDLELEVDPLNVDHFSCTPLMWACALGHLEAAVVLYKWDRRAISIPDSLGRLPLGIARSRGHVKLAECLEHLQRDEQAQLGQNPRIHCPASEEPSTESWMAQWHSEAISSPEIPKGVTVIASTNPELRRPRSEPSNYYSSESHKDYPAPKKHKLNPEYFQTRQEKLLPTALSLEEPNIRKQSPSSKQSVPETLSPSEGVRDFSRELSPPTPETAAFQASGSQPVGKWNSKDLYIGVSTVQVTGNPKGTSVGKEAAPSQVRPREPMSVLMMANREVVNTELGSYRDSAENEECGQPMDDIQVNMMTLAEHIIEATPDRIKQENFVPMESSGLERTDPATISSTMSWLASYLADADCLPSAAQIRSAYNEPLTPSSNTSLSPVGSPVSEIAFEKPNLPSAADWSEFLSASTSEKVENEFAQLTLSDHEQRELYEAARLVQTAFRKYKGRPLREQQEVAAAVIQRCYRKYKQYALYKKMTQAAILIQSKFRSYYEQKKFQQSRRAAVLIQKYYRSYKKCGKRRQARRTAVIVQQKLRSSLLTKKQDQAARKIMRFLRRCRHSPLVDHRLYKRSERIEKGQGT
B3: RXRA, P19793 (protein)
chain: MDTKHFLPLDFSTQVNSSLTSPTGRGSMAAPSLHPSLGPGIGSPGQLHSPISTLSSPINGMGPPFSVISSPMGPHSMSVPTTPTLGFSTGSPQLSSPMNPVSSSEDIKPPLGLNGVLKVPAHPSGNMASFTKHICAICGDRSSGKHYGVYSCEGCKGFFKRTVRKDLTYTCRDNKDCLIDKRQRNRCQYCRYQKCLAMGMKREAVQEERQRGKDRNENEVESTSSANEDMPVERILEAELAVEPKTETYVEANMGLNPSSPNDPVTNICQAADKQLFTLVEWAKRIPHFSELPLDDQVILLRAGWNELLIASFSHRSIAVKDGILLATGLHVHRNSAHSAGVGAIFDRVLTELVSKMRDMQMDKTELGCLRAIVLFNPDSKGLSNPAEVEALREKVYASLEAYCKHKYPEQPGRFAKLLLRLPALRSIGLKCLEHLFFFKLIGDTPIDTFLMEMLEAPHQMT
B4: HIPK2, Q9H2X6 (protein)
chain: MAPVYEGMASHVQVFSPHTLQSSAFCSVKKLKIEPSSNWDMTGYGSHSKVYSQSKNIPLSQPATTTVSTSLPVPNPSLPYEQTIVFPGSTGHIVVTSASSTSVTGQVLGGPHNLMRRSTVSLLDTYQKCGLKRKSEEIENTSSVQIIEEHPPMIQNNASGATVATATTSTATSKNSGSNSEGDYQLVQHEVLCSMTNTYEVLEFLGRGTFGQVVKCWKRGTNEIVAIKILKNHPSYARQGQIEVSILARLSTESADDYNFVRAYECFQHKNHTCLVFEMLEQNLYDFLKQNKFSPLPLKYIRPVLQQVATALMKLKSLGLIHADLKPENIMLVDPSRQPYRVKVIDFGSASHVSKAVCSTYLQSRYYRAPEIILGLPFCEAIDMWSLGCVIAELFLGWPLYPGASEYDQIRYISQTQGLPAEYLLSAGTKTTRFFNRDTDSPYPLWRLKTPDDHEAETGIKSKEARKYIFNCLDDMAQVNMTTDLEGSDMLVEKADRREFIDLLKKMLTIDADKRITPIETLNHPFVTMTHLLDFPHSTHVKSCFQNMEICKRRVNMYDTVNQSKTPFITHVAPSTSTNLTMTFNNQLTTVHNQAPSSTSATISLANPEVSILNYPSTLYQPSAASMAAVAQRSMPLQTGTAQICARPDPFQQALIVCPPGFQGLQASPSKHAGYSVRMENAVPIVTQAPGAQPLQIQPGLLAQQAWPSGTQQILLPPAWQQLTGVATHTSVQHATVIPETMAGTQQLADWRNTHAHGSHYNPIMQQPALLTGHVTLPAAQPLNVGVAHVMRQQPTSTTSSRKSKQHQSSVRNVSTCEVSSSQAISSPQRSKRVKENTPPRCAMVHSSPACSTSVTCGWGDVASSTTRERQRQTIVIPDTPSPTVSVITISSDTDEEEEQKHAPTSTVSKQRKNVISCVTVHDSPYSDSSSNTSPYSVQQRAGHNNANAFDTKGSLENHCTGNPRTIIVPPLKTQASEVLVECDSLVPVNTSHHSSSYKSKSSSNVTSTSGHSSGSSSGAITYRQQRPGPHFQQQQPLNLSQAQQHITTDRTGSHRRQQAYITPTMAQAPYSFPHNSPSHGTVHPHLAAAAAAAHLPTQPHLYTYTAPAALGSTGTVAHLVASQGSARHTVQHTAYPASIVHQVPVSMGPRVLPSPTIHPSQYPAQFAHQTYISASPASTVYTGYPLSPAKVNQYPYI
B5: GRHL3, Q8TE85 (protein)
chain: MSNELDFRSVRLLKNDPVNLQKFSYTSEDEAWKTYLENPLTAATKAMMRVNGDDDSVAALSFLYDYYMGPKEKRILSSSTGGRNDQGKRYYHGMEYETDLTPLESPTHLMKFLTENVSGTPEYPDLLKKNNLMSLEGALPTPGKAAPLPAGPSKLEAGSVDSYLLPTTDMYDNGSLNSLFESIHGVPPTQRWQPDSTFKDDPQESMLFPDILKTSPEPPCPEDYPSLKSDFEYTLGSPKAIHIKSGESPMAYLNKGQFYPVTLRTPAGGKGLALSSNKVKSVVMVVFDNEKVPVEQLRFWKHWHSRQPTAKQRVIDVADCKENFNTVEHIEEVAYNALSFVWNVNEEAKVFIGVNCLSTDFSSQKGVKGVPLNLQIDTYDCGLGTERLVHRAVCQIKIFCDKGAERKMRDDERKQFRRKVKCPDSSNSGVKGCLLSGFRGNETTYLRPETDLETPPVLFIPNVHFSSLQRSGGAAPSAGPSSSNRLPLKRTCSPFTEEFEPLPSKQAKEGDLQRVLLYVRRETEEVFDALMLKTPDLKGLRNAISEKYGFPEENIYKVYKKCKRGETSLLHPRLSRHPPPDCLECSHPVTQVRNMGFGDGFWRQRDLDSNPSPTTVNSLHFTVNSE
B6: CTNNB1, P35222 (protein)
chain: MATQADLMELDMAMEPDRKAAVSHWQQQSYLDSGIHSGATTTAPSLSGKGNPEEEDVDTSQVLYEWEQGFSQSFTQEQVADIDGQYAMTRAQRVRAAMFPETLDEGMQIPSTQFDAAHPTNVQRLAEPSQMLKHAVVNLINYQDDAELATRAIPELTKLLNDEDQVVVNKAAVMVHQLSKKEASRHAIMRSPQMVSAIVRTMQNTNDVETARCTAGTLHNLSHHREGLLAIFKSGGIPALVKMLGSPVDSVLFYAITTLHNLLLHQEGAKMAVRLAGGLQKMVALLNKTNVKFLAITTDCLQILAYGNQESKLIILASGGPQALVNIMRTYTYEKLLWTTSRVLKVLSVCSSNKPAIVEAGGMQALGLHLTDPSQRLVQNCLWTLRNLSDAATKQEGMEGLLGTLVQLLGSDDINVVTCAAGILSNLTCNNYKNKMMVCQVGGIEALVRTVLRAGDREDITEPAICALRHLTSRHQEAEMAQNAVRLHYGLPVVVKLLHPPSHWPLIKATVGLIRNLALCPANHAPLREQGAIPRLVQLLVRAHQDTQRRTSMGGTQQQFVEGVRMEEIVEGCTGALHILARDVHNRIVIRGLNTIPLFVQLLYSPIENIQRVAAGVLCELAQDKEAAEAIEAEGATAPLTELLHSRNEGVATYAAAVLFRMSEDKPQDYKKRLSVELTSSLFRTEPMAWNETADLGLDIGAQGEPLGYRQDDPSYRSFHSGGYGQDALGMDPMMEHEMGGHHPGADYPVDGLPDLGHAQDLMDGLPPGDSNQLAWFDTDL

target: nucleoprotein N of Crimean-Congo hemorrhagic fever virus; experiment: AlphaScreen luminescence signal relative to Venus negative control (fold); higher = stronger binding to CCHFV N
Procedure: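 AlphaScreen binding of cell-free made, FLAG-GST-tagged human transcription factors and regulators (crude translation products) to biotinylated N protein; signal as fold of the FLAG-GST-Venus control. One pass.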

Row | Binder | AlphaScreen luminescence signal
1 | B1 | 2.23
2 | B2 | 1.67
3 | B3 | 1.72
4 | B4 | 2.09
5 | B5 | 1.95
6 | B6 | 1.49
